Reference: the supplement of paper PMC11417369
± gives the standard deviation of the averaged measurements. The list shows a part of the results.

Tested on: PfAP2-EXP AP2 domain (GST-tagged)
Experiment: gcPBM binding intensity (ln(normalized median fluorescence intensity)); higher = stronger DNA binding
Outline: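 Binding intensity is the highest Masliner-normalised natural-log median intensity over replicate spots in either probe orientation. To obtain it, GST-tagged P. falciparum DNA-binding domains made in E. coli were incubated for 1 h on an Agilent 4 × 180k array of primer-extended double-stranded 36-bp intergenic genomic probes plus negative controls. Detection used Alexa488 anti-GST antibody with scanning at 488 nm.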

Sequence	gcPBM binding intensity (ln)
ATCAAAATTGTCATTACACACCTTTATTTTTATAAT [CACACA_site5071]	8.69 ± 0.38
AAATAAATAAATAGACGTACAAAAATATTATACATT [XGTACX_site6776]	8.46 ± 0.35
GATATGATGTGTTTGGTAGTTTTTGATGTTGGCATG [GTGCAC_negctrl_site506]	8.63 ± 0.56
AATAATGAAAAAATGAATAAAATTACTATATAATTC [XGTACX_negctrl_site457]	8.18 ± 0.18
TATAAATGTGTATGCGCATGTAAAAATATAATTTAT [TGCATGCA_site750]	9.07 ± 0.43
GTAAATAATAAACACCGTACATGGTATAATTCAATG [XGTACX_site3655]	8.65 ± 0.35
AAAATTTTTTGAAATAGTACTTTTTTATATATATAT [XGTACX_site2634]	9.77 ± 0.071
ATAAGGTTACAACAAACACACAAAGGAATATACACA [CACACA_site7840]	9.01 ± 0.47
AGGTGCTTAATATATACACACATACAGATATATATA [CACACA_site5552]	8.805 ± 0.049
GAACTCATTACAAAGTGTACAAATTAAATAAATGGT [XGTACX_site3995]	8.84 ± 0.36
TTTTTCTTATTTGGATTGCACTACATATATATATAT	10.14 ± 0.078
CAACAAAATAAACACACACACACAAACACAAAAAAA [CACACA_site5806]	8.53 ± 0.59
TATAAATTTATATATGCATGTCAGAAAAAAAAGTAA [TGCATGCA_site414]	8.99 ± 0.37
ACAAAAAATTAATGAGAAATGGAATAATAAGTTATA [GTGCAC_negctrl_site321]	8.6 ± 0.36
TGTATACCTTAATATACACACATACCTATATTTATA [CACACA_site6746]	8.44 ± 0.4
TATAAATAGAGGAAGCGTACATATATATATATATAT [XGTACX_site4993]	10.1 ± 0.37
AAGAAAAAAAAAAAAACACACATATATATATATATA [CACACA_site2027]	10.2 ± 0.13
ATATATAAATATATATGTACATAAATATATATCTTT [XGTACX_site6910]	8.57 ± 0.31
GGATATTAATAAATATGTACATATGTAGATTTATTA [XGTACX_site554]	8.41 ± 0.47
TATTTTTTTTTTTTTTGTACACATAATTGTAATCGT [XGTACX_site8415]	8.67 ± 0.13
CCACAGGATTGGTTCAAACACACATATTATATGACT [CACACA_site661]	8.48 ± 0.44
CATATAAAAATGTGCACACACACACCGATATATATT [CACACA_site4940]	8.94 ± 0.21
AAAAAAAAAATAAAATAAAATATATTATATATATTA [GTGCAC_negctrl_site431]	7.89 ± 0.48

Sequence	gcPBM binding intensity (ln)
TCACTTTTTATTAAATGTACATGCTTTCATTTTCAT [XGTACX_site8139]	8.89 ± 0.43
TATATATATATATATGTACACACATCAATCATATTA [CACACA_site8594]	10.1 ± 0.36
GAATAAATAATTAACACACACAATCTTTTTTTTTTT [CACACA_site3140]	8.24 ± 0.27
TGTACGAGTCGTAGAGTGCAGTCTGGAGAAAAGTAC [GTGCAC_site9683]	9.37 ± 0.39
TATATATATATATATACACACTTGTGCAGAATATTA [CACACA_site5257]	10 ± 0.55
AACGTGTATTTATATTGTACACATTCATACATCAAA [XGTACX_site3644]	8.66 ± 0.13
GTAGTGGTTGAATATACACACATATATATATATATA [CACACA_site2651]	10.1 ± 0.3
AGATAATAGGTTACTTGTACATATAAATAAATATAT [XGTACX_site158]	8.46 ± 0.31
AAAATCTAATATAATGCACACATAAAAAAAAATCAA [CACACA_site9211]	8.59 ± 0.33
AAAAAAAAAAAAAATTCACACAAGACTACTACATTT [CACACA_site4195]	8.13 ± 0.49
TTTTGTTATTATGAAGTGCATTTATGTTCATGTCTA	8.69 ± 0.26
ATATTAATTTCTCATGCATGTTCTACCCAATTGTAA [TGCATGCA_site355]	9.28 ± 0.38
TATATTATATATATACTGCACTGTTTTACAAAATTA	8.78 ± 0.11
ATATATGACTAATAAAGTACATACTTCATATAATTA [XGTACX_site6699]	8.41 ± 0.14
ACCCTTTTATATAAGAGTACAAACGTATTATTAAAT [XGTACX_site2221]	8.48 ± 0.36
AATATTAAAAACAAAACACACAAAAAAAAATAAAAT [CACACA_site702]	8.74 ± 0.57
TTTTAGTTATTGTATTATTATTAATATATAATATCT [CACACA_negctrl_site1528]	8.35 ± 0.42
AAAGCATGTTAATATGTATAAATACTGATCATTCAC [GTGCAC_negctrl_site576]	8.42 ± 0.27
CTAAAATGTAAAAACGCACACATAATATTATAAAAA [CACACA_site2788]	8.88 ± 0.6
TGAATAAATCAAAGCACACATACACAGACATATATA [CACACA_site4316]	8.79 ± 0.4
AACAGATAATATAAAAAAAAAAAAAAAAATAATTAA [GTGCAC_negctrl_site69]	8.07 ± 0.53
TATATAAATAAACACACACACACCTTATAATTATTA [CACACA_site9345]	8.69 ± 0.58
